# From patent publication US20220204567A1 (published 2022)
# B1: multidomain antibody MD3606 (Fc fusion)
# chain: EVQLVESGGGLVQPGGSLRLSCAVSISIFDIYAMDWYRQAPGKQRDLVATSFRDGSTNYADSVKGRFTISRDNAKNTLYLQMNSLKPEDTAVYLCHVSLYRDPLGVAGGMGVYWGKGALVTVSSGGGGSGGGGSEVQLVESGGGLVQAGGSLKLSCAASGRTYAMGWFRQAPGKEREFVAHINALGTRTYYSDSVKGRFTISRDNAKNTEYLEMNNLKPEDTAVYYCTAQGQWRAAPVAVAAEYEFWGQGTQVTVSSGGGGSGGGGSEVQLVESGGGLVQPGGSLRLSCAATGFTLENKAIGWFRQTPGSEREGVLCISKSGSWTYYTDSMRGRFTISRDNAENTVYLQMDSLKPEDTAVYYCATTTAGGGLCWDGTTFSRLASSWGQGTQVTVSSGGGGSGGGGSEVQLVESGGGLVQPGGSLKLSCAASGFTFSTSWMYWLRQAPGKGLEWVSVINTDGGTYYADSVKDRFTISRDNAKDTLYLQMSSLKSEDTAVYYCAKDWGGPEPTRGQGTQVTVSS[human IgG1 Fc left out]
# Target: wild type HA ectodomain of H3 A/Indiana/11/2011 with C-terminal Foldon trimerization domain
# Assay: ELISA
binder,measurement,value
B1,EC50,0.8 nM
